# Test results published in paper PMC4336329 (PLoS ONE, 2015).
# About 2,200 (0.71%) of roughly 310,000 compounds showed an effect of 50% or more. The effect is printed as a negative number. This is one part of the list.
# Target: human ether-à-go-go-related gene (hERG) potassium channel (human, UniProt Q12809)
# Test: primary screen, population patch clamp on CHO cells stably expressing hERG
# human ether-à-go-go-related gene (hERG) potassium channel, sequence (Q12809 whole entry, looked up): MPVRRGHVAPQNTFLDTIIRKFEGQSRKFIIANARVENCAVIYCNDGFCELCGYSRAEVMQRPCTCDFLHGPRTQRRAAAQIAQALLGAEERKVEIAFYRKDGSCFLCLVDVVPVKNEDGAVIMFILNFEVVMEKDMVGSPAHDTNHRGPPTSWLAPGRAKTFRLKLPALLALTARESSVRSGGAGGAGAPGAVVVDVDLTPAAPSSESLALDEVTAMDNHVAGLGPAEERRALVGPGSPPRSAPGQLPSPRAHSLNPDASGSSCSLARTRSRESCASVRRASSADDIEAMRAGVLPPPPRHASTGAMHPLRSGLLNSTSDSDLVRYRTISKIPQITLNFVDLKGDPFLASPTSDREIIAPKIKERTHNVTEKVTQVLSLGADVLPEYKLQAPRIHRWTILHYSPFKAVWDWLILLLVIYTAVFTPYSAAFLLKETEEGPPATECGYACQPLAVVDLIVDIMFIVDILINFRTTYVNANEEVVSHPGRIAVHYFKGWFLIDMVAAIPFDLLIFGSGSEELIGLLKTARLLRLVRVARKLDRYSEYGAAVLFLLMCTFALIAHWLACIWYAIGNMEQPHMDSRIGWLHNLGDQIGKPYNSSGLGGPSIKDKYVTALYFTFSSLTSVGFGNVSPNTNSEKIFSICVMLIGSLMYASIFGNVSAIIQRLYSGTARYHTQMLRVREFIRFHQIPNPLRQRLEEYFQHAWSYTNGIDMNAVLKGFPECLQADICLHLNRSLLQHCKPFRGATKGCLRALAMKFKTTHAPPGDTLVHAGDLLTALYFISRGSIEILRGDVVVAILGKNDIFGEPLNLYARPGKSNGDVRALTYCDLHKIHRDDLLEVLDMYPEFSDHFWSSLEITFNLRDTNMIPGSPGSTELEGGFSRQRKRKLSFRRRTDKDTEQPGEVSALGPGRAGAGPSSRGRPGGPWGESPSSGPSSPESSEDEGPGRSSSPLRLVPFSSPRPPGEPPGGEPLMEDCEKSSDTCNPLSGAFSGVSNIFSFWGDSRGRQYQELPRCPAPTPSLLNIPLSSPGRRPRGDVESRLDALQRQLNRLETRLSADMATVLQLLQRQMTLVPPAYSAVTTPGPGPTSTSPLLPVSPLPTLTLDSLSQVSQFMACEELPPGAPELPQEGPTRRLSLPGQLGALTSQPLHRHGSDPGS
row,Structure (SMILES),"hERG current change (%, negative = inhibition) at 1uM"
1,C/C(=N\Nc1ccc(S(N)(=O)=O)cc1[N+](=O)[O-])c1cccnc1,16.2%
2,CCCCn1c(N)c(N(CC)C(=O)C2CCC2)c(=O)[nH]c1=O,10.1%
3,CC1=C(C(=O)OCC2CCCO2)C(c2ccc(F)cc2)NC(=O)N1 (stereo not drawn),13%
4,COc1ccc(N(C(=O)c2ccc(F)cc2)C2=CC3CCC(C2)N3C)cc1.Cl (stereo not drawn),-50.3%
5,COc1ccc(OC)c(NC(=O)CCn2ccnc2)c1,15.3%
6,COc1cc(/C(C)=C/c2ccccc2)c2c(c1)oc1ccccc12,12.8%
7,COc1ccc(OC)c(C2CC(=O)C3=C(C2)NC(=O)CC3c2ccc(O)c(OC)c2)c1 (stereo not drawn),11.9%
8,CC(C)(C)NC(=O)CSc1nnc(-c2ccccn2)n1Cc1ccccc1,-0.219%
9,COc1ccc2[nH]c3nc(SCc4nnc(-c5ccc(C)cc5)o4)nnc3c2c1,3.98%
10,O=C(c1n[nH]c2c1CCCC2)n1ccnc1,15%
11,O=C(c1ccccc1)C1CCN(c2ncccc2[N+](=O)[O-])CC1,14.7%
12,CCOC(=O)c1sc(N2C(=O)C(O)=C(C(=O)c3ccco3)C2c2cccc(Cl)c2)nc1C (stereo not drawn),2.5%
13,CC(CCc1ccco1)NC(=O)Nc1cccc(F)c1 (stereo not drawn),-21.7%
14,CCOC(=O)C1CCN(C(C)C(=O)c2c(C)[nH]c3cc(C)ccc23)CC1 (stereo not drawn),-66.9%
15,COCCOc1ccc(C(F)(F)F)cc1NC(=O)COC(=O)C12CC3CC(CC(O)(C3)C1)C2,-13.5%
16,COc1ccc(S(=O)(=O)N2CCc3cc(OC)c(OC)cc3C2)cc1,5.4%
17,Cl.OC(CNC1CCCC1)COCCOc1ccc(Br)cc1 (stereo not drawn),4.92%
18,COCCN(C(=O)c1cc(Cl)ccn1)c1c(N)n(Cc2ccccc2)c(=O)[nH]c1=O,10.9%
19,CC(C)NS(=O)(=O)c1ccc(NC(=O)C(C)Oc2ccc(C(=O)c3ccccc3)cc2)cc1 (stereo not drawn),5.25%
20,COc1ccc(/C(O)=C2/C(=O)C(=O)N(CCN(C)C)C2c2cccnc2)cc1OC (stereo not drawn),1.09%
21,Cn1c(-c2ccccc2)c(C=O)c2ccccc21,0.386%
22,Cc1ccc(-n2c(N)cc(=O)nc2SCC(=O)N2CCN(c3ccccc3)CC2)cc1C,11.1%

row,Structure (SMILES),"hERG current change (%, negative = inhibition) at 1uM"
1,CCCn1c(C2CC(=O)N(c3cc(OC)ccc3OC)C2)nc2ccccc21 (stereo not drawn),1.05%
2,CC(=O)Nc1ccc(S(=O)(=O)N2CCN(c3cc(C(F)(F)F)ccn3)CC2)cc1,9.39%
3,Cc1ccc(S(=O)(=O)N(c2cccc(C(F)(F)F)c2)C2C=CS(=O)(=O)C2)cc1 (stereo not drawn),10.4%
4,COC(=O)Nc1ccc(SCC(=O)c2ccc(Cl)cc2)cc1,19.5%
5,COc1ccc(C(=O)NC(=S)NNC(=O)c2c(-c3ccccc3)noc2C)cc1,15.6%
6,O=C(CNC(=O)OCc1ccccc1)Nc1ccc(F)cc1,9.42%
7,Oc1ccc(-c2nc3ncccn3c2Nc2ccc3c(c2)OCO3)cc1,10.7%
8,COc1ccc(C2CC(c3cccs3)=NN2c2ccccc2)cc1 (stereo not drawn),6.86%
9,O=C(O)CCC1(C(=O)O)OCCc2ccccc21 (stereo not drawn),2.75%
10,O=C(Nc1ccnn1C1CCN(C/C=C/c2ccccc2)CC1)C1CCCC1,-78.4%
11,Cc1ccc(S(=O)(=O)N2CCOCC2)cc1NC(=O)COC(=O)CCC(=O)c1cccs1,5.96%
12,COc1ccc2c(c1)[C@@]13CCC=C[C@H]1[C@@H](C2)NCC3.Cl,9.55%
13,NS(=O)(=O)c1ccc(CCNCC(=O)NC2CC2)cc1,-36%
14,O=C1CSC(c2cn(-c3ccccc3)nc2-c2cc3ccccc3oc2=O)N1Cc1ccco1 (stereo not drawn),10.3%
15,CCCOc1ccc(C2C(C(=O)OC)=CN(CCOC)C=C2C(=O)OC)cc1,-5.54%
16,O=C(CNC(=S)N(Cc1ccccc1)Cc1cccnc1)NCc1ccccc1,0.171%
17,CC1CCN(C(=O)c2[nH]cnc2C(=O)Nc2cccc(Cl)c2)CC1,13.9%
18,COc1cccc(S(=O)(=O)NCc2ccc(C(=O)N3CCN(Cc4ccccc4)CC3)cc2)c1,14.5%
19,CCN(CC)S(=O)(=O)c1ccc(OC)c(NC(=O)CSc2ccccc2)c1,-39.9%
20,Cc1ccc(NC(=S)N2CCC(N(C)CC3CCCO3)CC2)cc1 (stereo not drawn),4.55%
21,CSc1ccc(Cl)c(C(=O)OCC(=O)NCC(C)C)c1,-6.71%
22,CC1=C/C(=N\OS(=O)(=O)c2ccccc2)C(C(C)C)=CC1=O,7.6%

row,Structure (SMILES),"hERG current change (%, negative = inhibition) at 1uM"
1,O=S(=O)(NN1CCOCC1)c1ccc(Br)s1,10.3%
2,Cc1cccc(OCCNC(=O)CSc2ccc(C(F)(F)F)cc2[N+](=O)[O-])c1,7.89%
3,COc1cc(/C=C/C(=O)O)cc(S(=O)(=O)Nc2ccc3[nH]c(=O)[nH]c3c2)c1OC,14.7%
4,O=C(NNC(=S)Nc1cccc(C(F)(F)F)c1)c1ccc(Cl)cc1Cl,8.09%
5,CCC(C)(C(=O)NC1CCCCC1)N(C(=O)CNC(C)=O)c1c(C)n(C)n(-c2ccccc2)c1=O (stereo not drawn),6.89%
6,c1ccc(-c2nnc(-c3ccccn3)s2)nc1,16.9%
7,Cc1cccc(-c2ccc(NC(=O)C3CCN(CC4CC4)CC3)cc2)c1,-5.16%
8,CC(C)(C)OC(=O)NCCCCCc1nnc(SCc2c(F)cccc2Cl)o1,13%
9,Cc1cc(C(=O)CSc2nc3ccc(Cl)cc3[nH]2)c(C)n1Cc1ccco1,10.2%
10,COc1ccc(C(=O)COC(=O)CCN2C(=O)C3C4CC(C(Br)C4Br)C3C2=O)cc1 (stereo not drawn),13.9%
11,Cc1ccc(S(=O)(=O)N2CCN(C(=O)c3ccc4c(c3)OCO4)CC2)cc1,5.5%
12,CSc1nc2ccsc2c(=O)n1-c1ccccc1,9.33%
13,CCN(CC(=O)Nc1ccccc1C(F)(F)F)C(=O)c1cccc(S(=O)(=O)N2CCN(C)CC2)c1,4.93%
14,C=CCNC(=O)c1ccc(-c2nc(-c3ccc(Cl)c(Cl)c3)cs2)cc1,9.5%
15,Cl.Clc1ccc(CSc2nnc([C@@H]3CCCN3)o2)cc1,2.12%
16,Cc1nnc(SCC(=O)c2cc(C)n(-c3ccc4c(c3)OCO4)c2C)s1,8.02%
17,O=C(NCc1ccccc1)c1c(Cl)nc(Cl)c(Cl)c1Cl,17.3%
18,CCOc1ccc(S(=O)(=O)N2CCOCC2)cc1NS(=O)(=O)c1ccc(OC)c([N+](=O)[O-])c1,-13%
19,Cc1nc2nc(SCC(=O)NCCCN3CCCCCC3)nn2c(C)c1Cc1ccccc1Cl,-1.29%
20,O=C(OCc1cccc([N+](=O)[O-])c1)c1cnccn1,10.3%
21,COc1ccc(CNC(=O)c2noc3c2CCCC3)cc1,3.2%
22,CCOC(=O)c1cc(C#N)c(Nc2ccccc2OC)nc1C(F)(F)F,10.2%

row,Structure (SMILES),"hERG current change (%, negative = inhibition) at 1uM"
1,Cc1ccc(CC(=O)NCCc2ccc(S(N)(=O)=O)cc2)cc1,12.1%
2,COc1ccc2oc(=N)c(-c3nnc4n3CCCCC4)cc2c1,1.02%
3,C=C(C)COc1ccc(C2NC(=O)c3ccccc3O2)cc1OCC (stereo not drawn),15.7%
4,NCCCNC(=O)c1ccc(/C=N/O)nc1,12.3%
5,COc1ccc(NC(=O)c2cccnc2)cc1OCC(C)C,4.4%
6,CCC(C)NCC(=O)Nc1ccc(S(N)(=O)=O)cc1 (stereo not drawn),17.7%
7,O=C1CCN(C(=O)c2cccs2)c2ccccc21,0.657%
8,O=C1NC(=Nc2ccc(Cl)cc2)SC1Cc1cc(Cl)ccc1Cl (stereo not drawn),21.6%
9,CCOC(=O)Cc1csc(NC(=O)C2CCCCC2C(=O)O)n1 (stereo not drawn),9.08%
10,CCN(C(=O)COC(=O)/C=C/c1cccc(Br)c1)C1CCS(=O)(=O)C1 (stereo not drawn),-4.71%
11,O=C1CCc2cc(NS(=O)(=O)c3cc(F)ccc3F)cc3c2N1CC3,11.8%
12,COC(=O)c1scc(S(=O)(=O)C(C)C)c1N/N=C(\C#N)C(=O)c1ccc(Cl)cc1,16.1%
13,O=C(Nc1ccc(Cl)c(Cl)c1)O/N=C/c1ccncc1,10.7%
14,Cc1ccc(C)c(N2CCN(C(=O)CN(C)S(=O)(=O)c3cnc[nH]3)CC2)c1,7.37%
15,COC(=O)c1ccccc1NC(=S)NC(=O)c1ccc2c(c1)OCO2,20.6%
16,O=C(CN1C(=O)c2cccc3cccc1c23)N1CCN(c2ccc(F)cc2)CC1,11.5%
17,CCC(C)N(C(=O)COC(=O)CNC(=O)c1sc2ccccc2c1Cl)C1CCS(=O)(=O)C1 (stereo not drawn),8.69%
18,CCOC(=O)c1c(NC(=O)CN2C(=O)C(=O)N(C(C)C)C2=O)sc(C)c1CC,-4.61%
19,O=C(NCCc1ccc(Cl)cc1)C1CCCN(S(=O)(=O)N2CCCCCC2)C1 (stereo not drawn),10.3%
20,CCc1ccc(OCC(=O)Nc2ccc(N3CCN(S(C)(=O)=O)CC3)cc2)cc1,20.9%
21,COc1cccc(C(=O)NN2CC(O)=C(c3nc(C)cs3)C2=N)c1,7.96%
